# Test results published in paper PMC6919601, “Identification of Plasmodium dipeptidyl aminopeptidase allosteric inhibitors by high throughput screening” (PLoS ONE, 2019).
# About 230 (0.21%) of roughly 110,000 compounds showed an effect of 50% or more. The list shows a part of the results.
# Biological target: DPAP1 (Plasmodium falciparum, UniProt Q8IIJ9)
# Test: primary screen, percent inhibition; read by cleavage of a fluorogenic dipeptide substrate; higher = more effect of the substance
# Set-up: species or system P. falciparum D10 trophozoite lysates; single well
# 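Note: 30 min substrate incubation versus DMSO and 10 µM JCP410 controls.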
# Chain of DPAP1 (Q8IIJ9 whole entry, looked up): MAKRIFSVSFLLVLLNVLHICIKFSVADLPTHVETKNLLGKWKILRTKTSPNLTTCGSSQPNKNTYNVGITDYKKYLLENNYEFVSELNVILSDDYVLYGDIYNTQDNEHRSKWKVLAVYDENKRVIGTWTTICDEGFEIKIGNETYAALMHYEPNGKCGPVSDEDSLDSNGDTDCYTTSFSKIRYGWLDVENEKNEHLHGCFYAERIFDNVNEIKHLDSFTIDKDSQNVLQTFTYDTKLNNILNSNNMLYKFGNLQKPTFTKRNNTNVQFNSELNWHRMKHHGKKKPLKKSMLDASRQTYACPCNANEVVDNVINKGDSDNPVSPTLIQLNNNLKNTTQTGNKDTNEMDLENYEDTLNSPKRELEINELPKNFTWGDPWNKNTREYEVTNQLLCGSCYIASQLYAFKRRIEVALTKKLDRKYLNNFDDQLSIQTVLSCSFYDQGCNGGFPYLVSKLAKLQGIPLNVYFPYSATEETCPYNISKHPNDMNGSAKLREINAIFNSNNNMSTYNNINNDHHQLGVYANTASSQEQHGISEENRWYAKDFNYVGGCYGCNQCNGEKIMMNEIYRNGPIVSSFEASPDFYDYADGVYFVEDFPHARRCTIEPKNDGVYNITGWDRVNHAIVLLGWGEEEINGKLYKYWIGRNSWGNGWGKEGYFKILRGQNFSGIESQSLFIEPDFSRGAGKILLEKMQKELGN
row,Structure (SMILES),% Inhibition @ 10 uM [%]
1,COc1cc(CNCCO)ccc1OCc1ccccc1Cl,-6.92
2,CC(C)(C)c1ccc(OCC(=O)N(Cc2ccccc2)C2CCS(=O)(=O)C2)cc1 (centres unmarked),2.24
3,O=C(Cc1ccccc1)Nc1nn2c(COc3ccccc3)nnc2s1,2.53
4,Cc1c(CCC(=O)O)c(=O)oc2c(C)c3occ(C(C)(C)C)c3cc12,0.558
5,Clc1ccc2oc(-c3ccccc3)c/c(=N\CC3CCCO3)c2c1 (centres unmarked),-1.18
6,C/C(=N\N=C\c1ccccn1)c1nnn(-c2nonc2N)c1C,-1.68
7,COc1cc(CNC(=O)c2cc(-c3ccc(F)cc3)[nH]n2)cc(OC)c1OC,3.13
8,Cc1ccc(C(=O)N/C(=C/c2cccs2)C(=O)NCCCn2cccn2)cc1C,0.503
9,CC1(C)C(C=C(Cl)Cl)C1C(=O)N1CCN(Cc2ccc3c(c2)OCO3)CC1 (centres unmarked),-7.96
10,CC1CC(=O)CCN1C(=O)c1ccccc1 (centres unmarked),-1.92
11,COc1ccccc1CCNC1CCCCC1,-2.35
12,Cc1ccnc2nc(NC(=O)Cc3ccc(Cl)cc3)nn12,2.05
13,COc1cccc(CN2CCN(C(=O)COc3ccccc3)CC2)c1,-3.24
14,CCOC(=O)c1[nH]c2ccc(OC)cc2c1NC(=S)N(C)Cc1ccccc1,1.68
15,Cn1cc(NC(=O)NCCC2=CCCCC2)c2ccccc2c1=O,-3.22
16,O=C(NC(C(=O)O)C12CC3CC(CC(C3)C1)C2)c1ccc(-c2ccccc2)cc1 (centres unmarked),2.86
17,N#Cc1ccc(OC(=O)COc2ccc([N+](=O)[O-])cc2)cc1,3.58
18,CCNc1nc(CC)nc(OCC)n1,-8.49
19,Cc1ccc(-c2cc(C(=O)N3CCCC3)c3ccccc3n2)s1,4.39
20,CC(=O)Nc1ccc(NC(=O)CN(c2ccccc2F)S(=O)(=O)c2ccc(C)cc2)cc1,5.29
21,O=C(Nc1ccccn1)c1ccc2ccccc2c1O,-1.85
22,C/N=c1\c(NS(=O)(=O)c2ccc(F)c(C)c2)c(O)oc2ccccc12,4.47
23,N=C1/C(=C\c2coc3ccccc3c2=O)C(=O)N=C2SC(c3cccnc3)=NN12,-9.6
24,CC(C)Cc1cc(C(=O)Nc2cnn(Cc3ccc(Cl)cc3Cl)c2)no1,2.4
25,Cc1ccc2nc(NC(=O)Cn3cc4c(n3)CCCCC4)sc2c1,3.4
26,Cn1ncc(Br)c1C(=O)Nc1nc2ccc(S(C)(=O)=O)cc2s1,-0.725

row,Structure (SMILES),% Inhibition @ 10 uM [%]
1,CC(C)OCCCNc1ncnc2c1c(-c1ccccc1)cn2-c1ccccc1,3.99
2,COc1ccc(CNC(=O)c2ccc3c(c2)C(=O)N(Cc2ccco2)C3=O)cc1,0.708
3,CCOC(=O)C1=CN(C)C=C(C(=O)OCC)C1c1cccc(Oc2ccccc2)c1,4.99
4,CCOC(=O)NC1(C(F)(F)F)NC(=O)N(c2ccc(C)cc2)C1=O (centres unmarked),-0.132
5,Cc1nc2ncnn2c(O)c1CCC(=O)NCC(C)c1ccccc1 (centres unmarked),-4.97
6,CCc1nnc2c(NCc3ccccc3Cl)nc3ccccc3n12,-4.47
7,CCOC(=O)C1CCN(c2ccc(Cl)cn2)CC1,3.76
8,Cc1ccc(CNC(=O)c2ccc3c(Cl)c4c(nc3c2)CCCC4)o1,4.41
9,OC1C2CCC1C(N1CCCCC1)CC2 (centres unmarked),2.92
10,Cc1nc2c(c3c1[nH]c1ccccc13)/C(=N\O)CC(C)(C)C2,-1.05
11,Cc1ccsc1CN(C(=O)c1ccc(OC(C)C)cc1)C1CCS(=O)(=O)C1 (centres unmarked),2.19
12,CCOc1ccc(N2CC(C(=O)Nc3c(C)cc(Br)cc3C)CC2=O)cc1 (centres unmarked),4.05
13,CCOC(=O)c1c(N)c(C#N)n2c1CCC2,-2.55
14,CC(C)C[C@H](NC(=O)OCc1ccccc1)C(=O)N[C@H](C#N)CCC(=O)OC(C)(C)C,3.19
15,O=C(c1cccnc1Cl)N1CCN(c2ccc(F)cc2)CC1,-1.89
16,CC(C)OCCCNC(=O)CCC(=O)N1CCSc2ncccc21,-9.2
17,c1ccc2c(c1)c1ccccc1n2CCCN1CCOCC1,-3.5
18,CS(=O)(=O)N1CCN(c2ccc(NC(=O)c3ccc4ccccc4c3)cc2)CC1,-6.39
19,O=C1C2C3CCC(C3)C2C(=O)N1c1ccc(Cl)c(Cl)c1 (centres unmarked),-4.69
20,Cc1ccnc(NC(=O)c2ccc(-c3ccccc3)cc2)n1,0.161
21,COc1cc(/C=C2/Sc3ccccc3C2=O)cc(Br)c1OC,0.76
22,Cc1nc2nc(C(F)(F)F)nn2c(O)c1Cc1ccccc1,-1.52
23,C=CCSC1=C(C#N)C(c2ccccc2C)CC(=O)N1 (centres unmarked),-1.08
24,COc1ccc(-c2nc(CNS(=O)(=O)c3c(C)cc(C)cc3C)cs2)cc1,-2.45
25,Cc1ccc(NC(=O)C2CC(=O)N(c3ccccc3)C2)cc1 (centres unmarked),-0.28
26,COCCNC(=O)CCCn1nc(C)n2c(cc3sccc32)c1=O,1.8

row,Structure (SMILES),% Inhibition @ 10 uM [%]
1,COc1ccc(C2NC(C(=O)O)CS2)cc1COCC(F)(F)F (centres unmarked),9.86
2,Nc1ccc2c(c1)S(=O)(=O)c1cc(N)ccc1O2,-0.693
3,COc1ccccc1Oc1ccc(N/C=C2/CCCCC2=O)cc1,3.99
4,CCn1cc(CNC(=O)C2C3CCC(C3)C2C(=O)O)cn1 (centres unmarked),2.7
5,COc1ccc(CCC2NCCn3cccc32)cc1OC (centres unmarked),-0.128
6,Cc1ccc(C)c(Cn2nnc(C(=O)NCc3ccc(F)cc3)c2N)c1,1.26
7,N#C/C(=C/c1cccc(C(F)(F)F)c1)C(=O)Nc1ccc(Cl)cc1,-1.32
8,CCCNC(=O)CCc1cn(Cc2ccc(F)cc2)c2ccccc12,-0.822
9,Cc1cccc(C(=N)NOC(=O)COc2cc(C)c(Cl)c(C)c2)c1,2.03
10,O=C(CSCc1cnn(-c2ccccc2)c1-n1cccc1)NC1CCN(Cc2ccccc2)CC1,-1.08
11,Cc1cc(Cl)nc(Cl)c1C(=O)NCc1ccc(Cl)cc1,-0.597
12,O=C(CSc1ccc(Cl)cc1)NCCSc1nc2ccccc2s1,-2.39
13,CCOC(=O)N1CCC(NC(=O)C2CCN(C(=O)c3cc4sccc4n3CC)CC2)CC1,4
14,Cc1c2cnn(CC(=O)N3CCN(c4ccccn4)CC3)c(=O)c2c(C)n1Cc1ccccc1F,1.22
15,O=C(O)CSc1n[nH]c(-c2ccncc2)n1,-7.18
16,CC1CCN(c2nc3ccc(C(=O)NCc4cccnc4)cc3s2)CC1,-2.37
17,CCC(CC)NCc1cc(Br)c(OC)cc1OC,-1.56
18,CCOc1ccc(-n2nnc(-c3nc(-c4ccncc4)no3)c2N)cc1,5.22
19,CCOC(=O)c1c(CC(C)C)csc1NC(=O)c1ccccc1F,-3.98
20,O=C(Nc1ccc(O)cc1)c1scc2c1CCCC2,-3.41
21,Cc1ccc(C(NC(N)=O)c2cccc(C)c2)cc1 (centres unmarked),4.61
22,Cc1cc(=O)n2nc(N(C)CC(=O)NCc3ccccc3Cl)sc2n1,-2
23,Cc1ccc(CN(Cc2ccccc2)C(=S)NCC(=O)N2CCC3(CC2)OCCO3)o1,-2.14
24,Cc1ccccc1S(=O)(=O)Nc1ccc(C(=O)c2ccccc2)cc1,-0.872
25,Cn1c(SCc2ccc(Cl)cc2)nc(=O)c2c1NC(=O)CC2c1cccc(O)c1 (centres unmarked),3.84
26,CCN(CC)C(=O)c1sc2nc3c(cc2c1N)C(=O)CCC3,-4.39

row,Structure (SMILES),% Inhibition @ 10 uM [%]
1,O=C(c1cc2n(n1)C(C(F)(F)F)CC(c1ccco1)N2)N1CCN(c2ccccn2)CC1 (centres unmarked),-2.75
2,CC(C)c1ccc(/C=C/C(=O)Nc2nc3ccc(S(C)(=O)=O)cc3s2)cc1,1.96
3,Cc1ccc2c(c1)C1NC(=S)N(CCc3ccccc3)C(C)(O2)C1C(=O)N(C)C (centres unmarked),-9.18
4,COc1ccc(OC)c(NC(=O)c2ccc(S(=O)(=O)N3CCCCC3C)cc2)c1 (centres unmarked),13.5
5,COC(=O)c1c(NC(=O)c2cc(=O)c3ccccc3o2)sc(C(C)=O)c1C,0.248
6,O=C(c1cccnc1)N1CCN(c2ccc3ccccc3n2)CC1,0.266
7,CCOc1ccc(C2=C/C(=C/c3ccc(Br)o3)C(=O)O2)cc1,-1.92
8,CC(=O)c1cccc(N2C(=O)C3C4CCC(C4=C(C)C)C3C2=O)c1 (centres unmarked),4.07
9,CC(Oc1ccccc1F)C(=O)N(Cc1ccc(N(C)C)cc1)C1CCS(=O)(=O)C1 (centres unmarked),1.34
10,COc1ccc(S(=O)(=O)Cc2ccc(C(=O)NCc3ccc(Cl)cc3)o2)cc1,5.34
11,O=C(CC1(Cc2ccc(Cl)cc2)C(=O)c2ccccc2C1=O)c1ccccc1,-7.98
12,CC/N=C1/SC(CC(=O)Nc2ccccc2CC)C(=O)N1CC (centres unmarked),-1.16
13,CC(=O)Cc1ccc2cccc(O)c2n1,1.7
14,N#Cc1ccccc1CSc1nc2ccccc2s1,4.89
15,O=C(O)CCCC(=O)N1CCN(c2cccc(Cl)c2)CC1,2.32
16,CCc1ccc(OCC(=O)NCc2nc(-c3ccc(C)cc3)no2)c(Br)c1,-8.69
17,CCN(CC)C(=O)CSc1nc(C2CC2)cc(C(F)(F)F)c1C#N,3.99
18,O=C(CCc1nc2cccnc2n1Cc1ccccc1)NCCc1ccc(Cl)cc1,-1.08
19,CC(Cc1ccccc1F)N1CCCCC1CO (centres unmarked),6.17
20,Cc1ccccc1OCC(=O)Nc1ccc(S(=O)(=O)N2CCCCCC2)cc1,1.7
21,N#CC1=C(SCC(=O)NCc2ccccc2)N=C2CCCC(O)=C2C1c1ccco1 (centres unmarked),3.79
22,Nc1ncc(Br)cc1S(=O)(=O)NCc1cccnc1,4.61
23,CC1(C)CC(=O)C2=C(C1)N(c1nc[nH]n1)C(N)=C(C#N)C2c1ccc2c(c1)OCO2 (centres unmarked),2.38
